Results as given in the RNAGym collection of RNA variant scans (doi:10.1073/pnas.2313332121).
Variants at the background level are over-represented here.

B1: TPR 5TU (parent)
chain: GGAUCUUCUCGAUCUAACAAAAAAGACAAAUCUGCCACAAAGCUUGAGAGCAUCUUCGGAUGCAGAGGCGGCAGCCUUCGGUGGCGCGAUAGCGCCAACGUUCUCAACUAUGACACGCAAAACGCGUGCUCCGUUGAAUGGAGUUUAUCAUG

Variants of: B1
Experiment: polymerase ribozyme fitness, log enrichment relative to wild type (log ratio); higher = more active; in vitro selection for triplet polymerase activity
Outline: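 In triplicate, a single round of in vitro selection was run on each mutant library, PCR-built and transcribed, covering one subunit of a heterodimeric triplet polymerase ribozyme. Frozen incubation at −7 °C followed annealing with a biotinylated primer, partner subunit and triplets, and extended constructs were then gel-excised, streptavidin-captured and taken through RT-PCR. Fitness is the logarithm of genotype enrichment over wild-type enrichment, from inverse-variance-weighted replicate averages of Illumina-sequenced inputs and outputs. […] only genotypes with ≥10 input reads and ≥1 read per output were kept.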

GGAUCUUCUCGAUCUAACAAAAAAGACAAAUCUGCCACAAAGCUUGAGAGCAUCUUCGGAUGCAGAGGCGGCAGCCUUCGGUGGCGAGAUAGCGCCAACGUUCUCCACUAUGACACGCAAAACGGGUGCUCCGUUGAAUGGAGUUUAUCAUG and GGAUCUUCUCGAUCUAACAAAAAAGACAAAUCUGCCACAAAGCUUGAGAGCAUCUUCGGAUGCAGAGGCGGCAGCCUUCGGUGGCCCGAUAGCGCCAACGUUCUCAACUAUGAUACGCAAAACGCGUGCUCCGUUGAAUAGAGUUUAUCAUG cannot be ordered by “polymerase ribozyme fitness (log ratio)” value: no more than -4.2 for the first, no more than -4.2 for the second.

GGAUCUUCUCGAUCUAACAAAAAAGACAAAUCUGCCACAAAGCUUGAGAGCAUCUUCGGAUGCAGAGGCGGCAGCCUUCGGUGGCGAGCUAGCGCCAACGUUCUCAACUAUGACACGCAAAACGCGUGCUCCGUUGAAUGGAGUUUAUCAUG and GGAUCUUCUCGAUCUAACAAAAAAGACAAAUCUGCCACAAAGCUUGAGAGCAUCUUCGGAUGCAGAGGCGGCAGCCUUCGGUGGCCCGAUAGCGCCAACGUUCUCAACUAUGACACGCAAAACGCGUGCUCCGUUCAAUGGAGUUUAUCAUG cannot be ordered by “polymerase ribozyme fitness (log ratio)” value: no more than -4.2 for the first, no more than -4.2 for the second.

First: GGAUCUUCUCGAUCUAACAAAAAAGACAAAUCUGCCACAAAGCUUGAGAGCAUCUUCGGAUGCAGAGGCGGCAGCCUUCGGUGGCCCGAUAGCGCCAACGUUCUCAACUAUGACACGCAAAACGCGUGCUCCGUUAAAUGGAGUUUAUCAUG
Second: GGAUCUUCUCGAUCUAACAAAAAAGACAAAUCUGCCACAAAGCUUGAGAGCAUCUUCGGAUGCAGAGGCGGCAGCCUUCGGUGGCUCGAUAGCGCCAACGUUCUCAACUAUGACACGUAAAACGCGUGCUCCGUUGAAUGGAGUUUAUCAUG
The “polymerase ribozyme fitness (log ratio)” value of the first is higher: -1.38 for the first, -1.69 for the second.

First: GGAUCUUCUCGAUCUAACAAAAAAGACAAAUCUGCCACAAAGCUUGAGAGCAUCUUCGGAUGCAGAGGCGGCAGCCUUCGGUGGCUCGAUAGCGCCAACGCUCUCAACUAUGACACGUAAAACGCGUGCUCCGUUGAAUGGAGUUUAUCAUG
Second: GGAUCUUCUCGAUCUAACAAAAAAGACAAAUCUGCCACAAAGCUUGAGAGCAUCUUCGGAUGCAGAGGCGGCAGCCUUCGGUGGCUCGAUAGCGCCAACGUUCUCAACUAUGACACGCAAAACGCGUGCUCCGUUGAAUGGAGUUUAACAUG
The “polymerase ribozyme fitness (log ratio)” value of the first is higher: -1.56 for the first, -3.6 for the second.

GGAUCUUCUCGAUCUAACAAAAAAGACAAAUCUGCCACAAAGCUUGAGAGCAUCUUCGGAUGCAGAGGCGGCAGCCUUCGGUGGCUCGAGAACGCCAACGUUCUCAGCUAUGACACGCAAAACGCGUGCUCCGUGGAAUGGAGUUUAUCAUG and GGAUCUUCUCGAUCUAACAAAAAAGACAAAUCUGCCACAAAGCUUGAGAGCAUCUUCGGAUGCAGAGGCGGCAGCCUUCGGUGGCUCGAUAGCGCCAACUUUCUCAACUAUGACACGCAAAACGCGUGCUCCGUUGAAUGGAGUUUAUCAUG cannot be ordered by “polymerase ribozyme fitness (log ratio)” value: no more than -4.2 for the first, no more than -4.2 for the second.

First: GGAUCUUCUCGAUCUAACAAAAAAGACAAAUCUGCCACAAAGCUUGAGAGCAUCUUCGGAUGCAGAGGCGGCAGCCUUCGGUGGCACGAUAGCGCCAACGUUCUCAACUAUGACACGCAAAACGCGUGCUCCGUUGAAUGGAUUUUAUCAUG
Second: GGAUCUUCUCGAUCUAACAAAAAAGACAAAUCUGCCACAAAGCUUGAGAGCAUCUUCGGAUGCAGAGGCGGCAGCCUUCGGUGGCGAGAUAGCGCCAACGUUCUCAUCUAUGACACGCAAAACGCGUGCUCCGUUGAAUGGAGUUUAUCAUG
The “polymerase ribozyme fitness (log ratio)” value of the first is higher: -3.07 for the first, no more than -4.2 for the second.

Compared with GGAUCUUCUCGAUCUAACAAAAAAGACAAAUCUGCCACAAAGCUUGAGAGCAUCUUCGGAUGCAGAGGCGGCAGCCUUCGGUGGCUCGAUAGCGCCAUCGUUCUCAACUAGGAUACGCAAAACGCGUGCUCCGUUGAAUGGAGUUUAUCAUG, GGAUCUUCUCGAUCUAACAAAAAAGACAAAUCUGCCACAAAGCUUGAGAGCAUCUUCGGAUGCAGAGGCGGCAGCCUUCGGUGGCUCGAUAGCGCCAACGUUCUCAACUAUGACACGCAAAACGUGUGCUCCGUUGAAUGGAGUUUAUCAUG is higher in “polymerase ribozyme fitness (log ratio)” value: -3.81 for the first, -2.02 for the second.

Going from GGAUCUUCUCGAUCUAACAAAAAAGACAAAUCUGCCACAAAGCUUGAGAGCAUCUUCGGAUGCAGAGGCGGCAGCCUUCGGUGGCGAGAUAGCGCCAACGUUCUCUACUAUGACACGCAAAACGCGUGCUCCGUUGAAUGGAGUUUAUCAUG to GGAUCUUCUCGAUCUAACAAAAAAGACAAAUCUGCCACAAAGCUUGAGAGCAUCUUCGGAUGCAGAGGCGGCAGCCUUCGGUGGCCCGAUAGCGCCAACGUUCUCAACUAUGACACGCAAAACGCGUGCUCCGUCGAAUGGCGUCUAUCAUG, the “polymerase ribozyme fitness (log ratio)” value falls from -4.18 to no more than -4.2.

GGAUCUUCUCGAUCUAACAAAAAAGACAAAUCUGCCACAAAGCUUGAGAGCAUCUUCGGAUGCAGAGGCGGCAGCCUUCGGUGGCGAGAUGGCGCCAACGUUCUCAACUAUGACACGCAAAACGCGUGCUCCGUUGAAUGGAGUUUAUCAUG and GGAUCUUCUCGAUCUAACAAAAAAGACAAAUCUGCCACAAAGCUUGAGAGCAUCUUCGGAUGCAGAGGCGGCAGCCUUCGGUGGCUCGAAAGCGCCAACGAUCUCGACUAUGUCACGCAUAACGCAUGCUCCGUUGAAUGGAGUUUAUCAUG cannot be ordered by “polymerase ribozyme fitness (log ratio)” value: no more than -4.2 for the first, no more than -4.2 for the second.

First: GGAUCUUCUCGAUCUAACAAAAAAGACAAAUCUGCCACAAAGCUUGAGAGCAUCUUCGGAUGCAGAGGCGGCAGCCUUCGGUGGCCCGAUAGCGCCAACGGUCUCAACUAUGACACGCAAAACGCGUGCUCCGUUGAAUGGAGUUUAUCAUG
Second: GGAUCUUCUCGAUCUAACAAAAAAGACAAAUCUGCCACAAAGCUUGAGAGCAUCUUCGGAUGCAGAGGCGGCAGCCUUCGGUGGCUCUAUAGCUCCAACGUUCUCAACUAUGACACGCAAAACGCGUGCUCCGUUGAAUGGAGUUUAUCUUG
The “polymerase ribozyme fitness (log ratio)” value of the first is higher: -2.8 for the first, no more than -4.2 for the second.

First: GGAUCUUCUCGAUCUAACAAAAAAGACAAAUCUGCCACAAAGCUUGAGAGCAUCUUCGGAUGCAGAGGCGGCAGCCUUCGGUGGCCCGAUAGCGCCAACGUUCUCAACUAUGACACGCAAAACGCGGGCUCCGUUGGAUGGAGUUGAUCAUG
Second: GGAUCUUCUCGAUCUAACAAAAAAGACAAAUCUGCCACAAAGCUUGAGAGCAUCUUCGGAUGCAGAGGCGGCAGCCUUCGGUGGCUCGAUAGCGCCAACGUGCUCAACUAUGACACGCAAAACGCGUGCUCCGUUGAAUGGAGUUUAUCUUG
The “polymerase ribozyme fitness (log ratio)” value of the first is lower: no more than -4.2 for the first, -3.59 for the second.

GGAUCUUCUCGAUCUAACAAAAAAGACAAAUCUGCCACAAAGCUUGAGAGCAUCUUCGGAUGCAGAGGCGGCAGCCUUCGGUGGCGAGAUAGCGCCAACGUUCUCAACUCUGACAAGCAAAACGCGUGCUCCGUUGAAUGGUGUUUAUCAUG and GGAUCUUCUCGAUCUAACAAAAAAGACAAAUCUGCCACAAAGCUUGAGAGCAUCUUCGGAUGCAGAGGCGGCAGCCUUCGGUGGCUCGAUAGCGCCAACGUUCCCAACUAUGACACGCAAAACGCGUGCUACGUCGAAUGGAGUUUAUCAUG cannot be ordered by “polymerase ribozyme fitness (log ratio)” value: no more than -4.2 for the first, no more than -4.2 for the second.

Going from GGAUCUUCUCGAUCUAACAAAAAAGACAAAUCUGCCACAAAGCUUGAGAGCAUCUUCGGAUGCAGAGGCGGCAGCCUUCGGUGGCUCGAUAGCGCCAACGUUCUCAACUAUGACACGCAAAACGCGUGCUCCGUUGGAUGGAGUUUAUCAUG to GGAUCUUCUCGAUCUAACAAAAAAGACAAAUCUGCCACAAAGCUUGAGAGCAUCUUCGGAUGCAGAGGCGGCAGCCUUCGGUGGCUCGAGAGCGCCAUCGUUCUCAACUAUGACACGCAAAACGCGUGCUCCGUUGAAUGGACUUUAUCAUG, the “polymerase ribozyme fitness (log ratio)” value falls from -3.03 to no more than -4.2.

GGAUCUUCUCGAUCUAACAAAAAAGACAAAUCUGCCACAAAGCUUGAGAGCAUCUUCGGAUGCAGAGGCGGCAGCCUUCGGUGGCUCAAUAGCGCCAACGUUCUCAACUAUGACACGCAAAACGCGUGCUCCGUUGAAUGGAGUUUAUCCUG and GGAUCUUCUCGAUCUAACAAAAAAGACAAAUCUGCCACAAAGCUUGAGAGCAUCUUCGGAUGCAGAGGCGGCAGCCUUCGGUGGCUCGAGAGCGCCAACAUUCUCAACUAUGACAAGCAAACCGCGUGCUCCGUUGAAUGGAGUUUAUCAUG cannot be ordered by “polymerase ribozyme fitness (log ratio)” value: no more than -4.2 for the first, no more than -4.2 for the second.

Compared with GGAUCUUCUCGAUCUAACAAAAAAGACAAAUCUGCCACAAAGCUUGAGAGCAUCUUCGGAUGCAGAGGCGGCAGCCUUCGGUGGCGAGAUAGCGCCAGCGUUCUCAACUAUGACACGCAAAACGCGUGCGCCGUUGAAUGGAGUUUAUCAUG, GGAUCUUCUCGAUCUAACAAAAAAGACAAAUCUGCCACAAAGCUUGAGAGCAUCUUCGGAUGCAGAGGCGGCAGCCUUCGGUGGCUCGAUAGCGCCAACGUUCUCAACUAUGACACGCGAAACGCGUGCUCCGUUGAAUGGAGUUUAUCAUG is higher in “polymerase ribozyme fitness (log ratio)” value: no more than -4.2 for the first, -1.54 for the second.

Going from GGAUCUUCUCGAUCUAACAAAAAAGACAAAUCUGCCACAAAGCUUGAGAGCAUCUUCGGAUGCAGAGGCGGCAGCCUUCGGUGGCUCGAUAGCGCAAACGUUCUCAACUAUGACACGCAAAACGCGUGCUCCGUUGAAUGGAGUUUAUCAUG to GGAUCUUCUCGAUCUAACAAAAAAGACAAAUCUGCCACAAAGCUUGAGAGCAUCUUCGGAUGCAGAGGCGGCAGCCUUCGGUGGCUCGCUAGCGCCAACGUUCUCAACUAUGACACGCCAAACGCGUGCUCCGUUGAAUGGAGUUUAUCAUG, the “polymerase ribozyme fitness (log ratio)” value falls from -2.89 to -3.83.

GGAUCUUCUCGAUCUAACAAAAAAGACAAAUCUGCCACAAAGCUUGAGAGCAUCUUCGGAUGCAGAGGCGGCAGCCUUCGGUGGCCCGAUAGCGCCAAGGUUCUCAACGAUGACACGCAAAACGCGUGAUCCGUUGAAUGGAGUUUAGCAUG and GGAUCUUCUCGAUCUAACAAAAAAGACAAAUCUGCCACAAAGCUUGAGAGCAUCUUCGGAUGCAGAGGCGGCAGCCUUCGGUGGCACGAUAGCGCCAACGUUCUCAACUAUCACACGCAAAGCGCGUGCUCCGUUGAAUGGAGUUUAUCAUG cannot be ordered by “polymerase ribozyme fitness (log ratio)” value: no more than -4.2 for the first, no more than -4.2 for the second.

Compared with GGAUCUUCUCGAUCUAACAAAAAAGACAAAUCUGCCACAAAGCUUGAGAGCAUCUUCGGAUGCAGAGGCGGCAGCCUUCGGUGGCCCGAUAGCGCUAACGUUCUCAACUAUGACACGCAAAACGCGUGCUCCGUUGAAUGGAGUUUAUCAUG, GGAUCUUCUCGAUCUAACAAAAAAGACAAAUCUGCCACAAAGCUUGAGAGCAUCUUCGGAUGCAGAGGCGGCAGCCUUCGGUGGCUCGAUAGCGCCAACGUUCGCAACUAUGACAAGCAAAACGCGUGCUCCGUUGAAUGGGGUUUCUCAUG is lower in “polymerase ribozyme fitness (log ratio)” value: -2.67 for the first, no more than -4.2 for the second.

GGAUCUUCUCGAUCUAACAAAAAAGACAAAUCUGCCACAAAGCUUGAGAGCAUCUUCGGAUGCAGAGGCGGCAGCCUUCGGUGGCCCUAUAGCGCCAACGUUCGCAACUAUGACAGGCAAAACGCGUGCUCCGUUGAAUGGAGUUUAUCAUG and GGAUCUUCUCGAUCUAACAAAAAAGACAAAUCUGCCACAAAGCUUGAGAGCAUCUUCGGAUGCAGAGGCGGCAGCCUUCGGUGGCCCGAUAACGCCAACGUUCUCAACUAUGACACGCAAAACGCGUGCUCCGUUGAAUGGAGUUUAUCAUG cannot be ordered by “polymerase ribozyme fitness (log ratio)” value: no more than -4.2 for the first, no more than -4.2 for the second.
